{"source": "paper PMC4336329", "about": "(PLoS ONE, 2015)", "note": "In all, about 310,000 compounds went through this assay and about 14,000 (4.5%) showed an effect of 50% or more. The effect is printed as a negative number. The list shows a part of the results.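 Note: peak tail current of the secondary pulse compared with the same well before compound.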", "data": [{"target": "human ether-à-go-go-related gene (hERG) potassium channel (human, UniProt Q12809)", "sequence (Q12809 whole entry, looked up)": "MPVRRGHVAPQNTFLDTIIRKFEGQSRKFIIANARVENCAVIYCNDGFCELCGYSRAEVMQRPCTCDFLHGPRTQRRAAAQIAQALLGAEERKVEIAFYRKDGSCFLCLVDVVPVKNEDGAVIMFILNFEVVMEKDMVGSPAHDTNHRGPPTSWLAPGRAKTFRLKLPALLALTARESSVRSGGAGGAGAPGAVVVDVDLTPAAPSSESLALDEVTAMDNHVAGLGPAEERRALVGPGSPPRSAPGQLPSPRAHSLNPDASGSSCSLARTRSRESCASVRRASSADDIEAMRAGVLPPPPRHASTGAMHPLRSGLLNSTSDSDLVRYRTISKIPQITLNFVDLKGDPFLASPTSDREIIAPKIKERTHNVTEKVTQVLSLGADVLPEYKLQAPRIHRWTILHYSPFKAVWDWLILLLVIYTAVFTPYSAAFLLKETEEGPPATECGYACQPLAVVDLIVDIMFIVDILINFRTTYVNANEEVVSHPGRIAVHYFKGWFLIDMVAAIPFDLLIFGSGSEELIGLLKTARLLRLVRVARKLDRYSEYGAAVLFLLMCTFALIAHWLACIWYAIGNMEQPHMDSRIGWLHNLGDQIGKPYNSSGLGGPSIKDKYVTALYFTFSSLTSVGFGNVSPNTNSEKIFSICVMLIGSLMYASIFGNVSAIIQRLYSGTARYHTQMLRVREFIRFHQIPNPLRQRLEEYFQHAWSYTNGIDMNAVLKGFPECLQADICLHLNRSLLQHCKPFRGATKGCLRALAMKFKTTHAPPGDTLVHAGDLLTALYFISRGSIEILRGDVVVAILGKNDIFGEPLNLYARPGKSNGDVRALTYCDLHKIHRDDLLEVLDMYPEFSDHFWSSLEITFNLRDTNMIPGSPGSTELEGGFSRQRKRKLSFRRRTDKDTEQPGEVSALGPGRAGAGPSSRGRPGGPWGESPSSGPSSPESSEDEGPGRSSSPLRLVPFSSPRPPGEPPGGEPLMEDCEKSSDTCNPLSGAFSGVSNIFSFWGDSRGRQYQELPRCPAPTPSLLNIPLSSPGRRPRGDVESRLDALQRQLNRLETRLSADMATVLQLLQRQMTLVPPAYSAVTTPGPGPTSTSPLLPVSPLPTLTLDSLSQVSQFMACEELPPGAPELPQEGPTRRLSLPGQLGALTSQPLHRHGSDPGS", "experiment": "primary screen, population patch clamp on CHO cells stably expressing hERG", "units": {"hERG current change (%, negative = inhibition) at 10uM": "%"}, "values": [{"smiles": "Cc1cc(Cl)c(C)c(S(=O)(=O)N2CCN(C(=O)C3CCCO3)CC2)c1Cl", "note": "(stereo not drawn)", "hERG current change (%, negative = inhibition) at 10uM": -21.6}, {"smiles": "COc1ccc(/C=C/C(=O)OCC(=O)Nc2ccc(S(N)(=O)=O)cc2)cc1OC", "hERG current change (%, negative = inhibition) at 10uM": -2.78}, {"smiles": "CCOc1ccc(S(=O)(=O)N2CN3CCN(C3)C2)cc1", "hERG current change (%, negative = inhibition) at 10uM": 2.12}, {"smiles": "CN1CCN(S(=O)(=O)c2cccc(C(=O)Nc3sc4c(c3-c3nc5ccccc5[nH]3)CCCC4)c2)CC1", "hERG current change (%, negative = inhibition) at 10uM": 3.33}, {"smiles": "CCOC(=O)c1ccccc1NC(=O)CSc1nnc(Cc2cccn2C)n1-c1ccc(C)cc1", "hERG current change (%, negative = inhibition) at 10uM": -14}, {"smiles": "Cc1cccc(C(=O)OCc2cncs2)c1", "hERG current change (%, negative = inhibition) at 10uM": 6.94}, {"smiles": "CCOC(=O)c1c(C)[nH]c(N=Nc2ccccc2Cl)c1C", "hERG current change (%, negative = inhibition) at 10uM": 0.965}, {"smiles": "COc1cc(S(=O)(=O)N2CCN(C)CC2)c(OC)cc1Br", "hERG current change (%, negative = inhibition) at 10uM": -4.94}, {"smiles": "Cc1ccccc1NC(=O)C(=O)NC(C)CCc1ccccc1", "note": "(stereo not drawn)", "hERG current change (%, negative = inhibition) at 10uM": 13.1}, {"smiles": "Cc1ccc(N2CC(C(=O)OCC(=O)Nc3ccccc3C)CC2=O)cc1", "note": "(stereo not drawn)", "hERG current change (%, negative = inhibition) at 10uM": 8.97}, {"smiles": "CC1CN(c2nnnn2-c2ccccc2)CC(C)O1", "note": "(stereo not drawn)", "hERG current change (%, negative = inhibition) at 10uM": -23.1}, {"smiles": "COC(=O)c1cccc(-c2ccc(C(c3c(C)[nH][nH]c3=O)c3c(C)[nH][nH]c3=O)o2)c1", "hERG current change (%, negative = inhibition) at 10uM": 8.18}, {"smiles": "COc1ccccc1C1/C(=C(/O)c2ccccc2)C(=O)C(=O)N1CC(C)O", "note": "(stereo not drawn)", "hERG current change (%, negative = inhibition) at 10uM": 5.05}, {"smiles": "Cc1c(Cl)cccc1-c1ccc(/C=N/n2cnnc2)o1", "hERG current change (%, negative = inhibition) at 10uM": -12.7}, {"smiles": "Cc1cc(C(=O)NCc2ccccc2F)cs1", "hERG current change (%, negative = inhibition) at 10uM": -0.387}, {"smiles": "O=C(CSc1nc(=O)n(CCCN2CCOCC2)c2c1CCCC2)Nc1ccc(F)cc1", "hERG current change (%, negative = inhibition) at 10uM": -43.7}, {"smiles": "COCCN1CCN(C(=O)C2CCC(=O)N(Cc3ccccc3OC)C2)CC1", "note": "(stereo not drawn)", "hERG current change (%, negative = inhibition) at 10uM": 8.85}, {"smiles": "Clc1ccc2nc(CSc3ncn[nH]3)cn2c1", "hERG current change (%, negative = inhibition) at 10uM": 2.26}, {"smiles": "O=C(COC(=O)c1ccc(Cl)nc1)NNC(=O)c1ccc(Cl)cc1", "hERG current change (%, negative = inhibition) at 10uM": 12.5}, {"smiles": "CC(C)=CCc1cc(-c2oc3cc(O)cc(O)c3c(=O)c2O)ccc1O", "hERG current change (%, negative = inhibition) at 10uM": 9.33}, {"smiles": "CC(=O)Nc1cc([N+](=O)[O-])ccc1N1CCOCC1", "hERG current change (%, negative = inhibition) at 10uM": -7.99}, {"smiles": "O=c1[nH]c(CN2CCN(S(=O)(=O)/C=C/c3ccccc3)CC2)nc2cc(Cl)ccc12", "hERG current change (%, negative = inhibition) at 10uM": -65.8}, {"smiles": "O=[N+]([O-])c1ccc(Cc2nnc(-c3ccc(F)cc3)o2)cc1", "hERG current change (%, negative = inhibition) at 10uM": -57.2}, {"smiles": "CCCCNc1ncnc2c1cnn2-c1ccc(Cl)cc1", "hERG current change (%, negative = inhibition) at 10uM": 14.6}, {"smiles": "C=CCNc1ncnc2c1cnn2-c1ccc(C)cc1C", "hERG current change (%, negative = inhibition) at 10uM": 3.76}, {"smiles": "CCOc1ncccc1C(=O)OCC(=O)c1cc(C)n(Cc2ccco2)c1C", "hERG current change (%, negative = inhibition) at 10uM": -7.34}, {"smiles": "CCOc1ccc(-n2c(=O)c3ccccc3c3ccccc3c2=O)cc1", "hERG current change (%, negative = inhibition) at 10uM": 17.8}, {"smiles": "CCCc1cc(=O)oc2cc(OC(C)C(=O)NCC3CCC(C(=O)O)CC3)c(Cl)cc12", "note": "(stereo not drawn)", "hERG current change (%, negative = inhibition) at 10uM": 10.1}, {"smiles": "Cc1ccnc(NC(=O)CCNC(=O)c2ccccc2Cl)c1", "hERG current change (%, negative = inhibition) at 10uM": 5.8}, {"smiles": "CCCCN(C(=O)c1cc2ccccc2o1)c1c(N)n(CCCC)c(=O)[nH]c1=O", "hERG current change (%, negative = inhibition) at 10uM": -10.2}, {"smiles": "COC(=O)C(NS(=O)(=O)c1ccccc1Br)C(C)C", "note": "(stereo not drawn)", "hERG current change (%, negative = inhibition) at 10uM": 5.6}, {"smiles": "C[C@@H]1C=C(C(=O)N2CCN(Cc3ccc4c(c3)OCO4)CC2)O[C@H](OCCCCO)C1", "hERG current change (%, negative = inhibition) at 10uM": 4.01}, {"smiles": "CC1CCN(C(=O)C2CCN(c3ncnc4c3nc3n4CCCCC3)CC2)CC1", "hERG current change (%, negative = inhibition) at 10uM": -20.6}, {"smiles": "CC(C)c1nc(C(=O)N2CCCC(N3CCN(c4cccc(Cl)c4)CC3)C2)cs1", "note": "(stereo not drawn)", "hERG current change (%, negative = inhibition) at 10uM": -36.4}, {"smiles": "O=C(CBr)N1CCc2ccccc2C(c2ccccc2)C1", "note": "(stereo not drawn)", "hERG current change (%, negative = inhibition) at 10uM": 3.93}, {"smiles": "O=C(NCc1n[nH]c(=S)n1-c1ccccc1Cl)c1ccc(S(=O)(=O)N2CCCCC2)cc1", "hERG current change (%, negative = inhibition) at 10uM": 13.5}, {"smiles": "CC(=O)NC1=NN(C(C)=O)C(c2cccs2)S1", "note": "(stereo not drawn)", "hERG current change (%, negative = inhibition) at 10uM": 20}, {"smiles": "Cc1ccc(CNC(=O)C(=O)NCC2CCCO2)cc1", "note": "(stereo not drawn)", "hERG current change (%, negative = inhibition) at 10uM": 7.89}, {"smiles": "CCN(CC)C(=O)c1ccc(-c2cccs2)s1", "hERG current change (%, negative = inhibition) at 10uM": 14.2}, {"smiles": "O=CC(Cl)P(=O)(N1CCOCC1)N1CCOCC1", "note": "(stereo not drawn)", "hERG current change (%, negative = inhibition) at 10uM": 5.11}, {"smiles": "COc1ccc(C2/C(=C(/O)c3ccc4c(c3)CC(C)O4)C(=O)C(=O)N2Cc2ccncc2)cc1", "note": "(stereo not drawn)", "hERG current change (%, negative = inhibition) at 10uM": 5.97}, {"smiles": "O=c1c2nccnc2[nH]c(=S)n1Cc1ccccc1", "hERG current change (%, negative = inhibition) at 10uM": 6.76}, {"smiles": "Cc1ccccc1C(=O)N(Cc1cccs1)C1CCS(=O)(=O)C1", "note": "(stereo not drawn)", "hERG current change (%, negative = inhibition) at 10uM": 31}, {"smiles": "COc1ccc(/C=C(\\NC(=O)c2ccccc2)C(=O)NCc2ccco2)cc1", "hERG current change (%, negative = inhibition) at 10uM": 11.9}, {"smiles": "Clc1cc(-c2ccccc2)nc(-c2ccccc2)n1", "hERG current change (%, negative = inhibition) at 10uM": -5.9}, {"smiles": "COc1ccc(S(=O)(=O)N2CCN(Cc3ccc4c(c3)OCO4)CC2)cc1", "hERG current change (%, negative = inhibition) at 10uM": -42.6}, {"smiles": "CCN(CC(=O)Nc1c(F)cccc1F)C(=O)C1CC(=O)N(CCc2ccc(OC)c(OC)c2)C1", "note": "(stereo not drawn)", "hERG current change (%, negative = inhibition) at 10uM": 8.38}, {"smiles": "CC(C)(C)c1ccc(S(=O)(=O)n2c(CN3CCOCC3)nc3ccccc32)cc1", "hERG current change (%, negative = inhibition) at 10uM": 3.73}, {"smiles": "CC(C)[C@H](NC(=O)c1ccccc1)C(=O)OCC(=O)c1ccccc1F", "hERG current change (%, negative = inhibition) at 10uM": -3.46}, {"smiles": "Cc1ccc(C)c(OCc2cc(C(=O)N3CCc4sccc4C3)no2)c1", "hERG current change (%, negative = inhibition) at 10uM": 11.7}, {"smiles": "CCOC(=O)C1CCN(C(c2cc(OC)c(OC)c(OC)c2)c2sc3nc(C)nn3c2O)CC1", "note": "(stereo not drawn)", "hERG current change (%, negative = inhibition) at 10uM": -4.32}, {"smiles": "Cc1onc(-c2ccccc2)c1C(=O)NCc1ccc2c(c1)OCO2", "hERG current change (%, negative = inhibition) at 10uM": 6.69}, {"smiles": "OCCC#Cc1ccc(CN2CCN(CCc3ccccc3)C(CCO)C2)cc1", "note": "(stereo not drawn)", "hERG current change (%, negative = inhibition) at 10uM": -20.7}, {"smiles": "COCCCN1C(=O)c2ccc(C(=O)Nc3cccc(OC)c3)cc2C1=O", "hERG current change (%, negative = inhibition) at 10uM": -21.4}, {"smiles": "Nc1nc(NCC(=O)O)nc(NC2CCCCC2)c1[N+](=O)[O-]", "hERG current change (%, negative = inhibition) at 10uM": 19.2}, {"smiles": "O=C(c1ccc2nc(N3CCOCC3)sc2c1)N1CCN(c2ccc(Cl)cc2)CC1", "hERG current change (%, negative = inhibition) at 10uM": -15.1}, {"smiles": "Cc1cccc(NC(=O)c2cccc(C(=O)Nc3cccc(C)c3)n2)c1", "hERG current change (%, negative = inhibition) at 10uM": 5.3}]}]}
